From patent US20240010684A1, “MASP INHIBITORY COMPOUNDS AND USES THEREOF” (BAYER AKTIENGESELLSCHAFT, priority 2020, published 2024)
Not every detail of the peptide structures is certain; ends, links or a residue may be inferred. Where a SMILES comes first, the peptide text is derived from it. Bridges are numbered along the chain shown (N, C = ends). [ ]: non-standard residue; d: D form. Oic = O=C(O)[C@@H]1C[C@@H]2CCCC[C@@H]2N1; tBuAla = CC(C)(C)C[C@H](N)C(=O)O; PEG4 = NCCOCCOCCOCCOCCC(=O)O; Pen = CC(C)(S)[C@H](N)C(=O)O; NMeC = CN[C@@H](CS)C(=O)O; Dap = NC[C@H](N)C(=O)O; PEG2 = NCCOCCOCCC(=O)O; Ahx = NCCCCCC(=O)O

System: Human C3-DEPOSITION SERUM
Assay: C3 deposition assay, human serum on mannan-coated plates
Assay type: biochemical
Settings: Average IC50
Description: 3. C3 Deposition Assay (Human, Rat, Mouse, Dog, Pig))
The C3 deposition assay was conducted essentially as described (reference). Multiwell plates (Greiner-Nunc 384 Maxi Sorp #464718) were coated over night with Mannan from Saccharomyces cerevisiae (Sigma M7504, 10 μg/mL in 0.05 M carbonate-bicarbonate buffer, pH 9.6) at 4° C. Wells were washed three times with TBS and subsequently incubated for 2 hours with 50 μL of 1% bovine serum albumin (BSA) in Tris-buffered saline (TBS) at 37° C. in order to block non-specific binding. After this step and each of the following incubation steps wells were washed three times with C3 wash buffer (TBS; 0.05% Tween 20; 5 mM CaCl2). […] When appropriately developed the color reaction was stopped by addition of 25 μL of stop solution (Sigma S5814) and quantified on a photometer by measuring absorption at a wavelength of 450 nm. Antibodies were diluted in C3 wash buffer supplemented with 0.5% BSA.

Row | Structure (SMILES) | IC50
1 | CC[C@H](C)[C@@H]1NC(=O)CNC(=O)CCOCCOCCOCCOCCNC(=O)[C@H](CC(=O)O)NC(=O)[C@@H]2CCCN2C(=O)[C@H]([C@@H](C)CC)NC(=O)[C@@H]2CSSC[C@H](NC1=O)C(=O)N[C@@H](CO)C(=O)N[C@@H](CCCNC(=N)N)C(=O)N[C@@H](CO)C(=O)N[C@@H](CC(C)C)C(=O)N1CCC[C@H]1C(=O)N1CCC[C@H]1C(=O)N[C@@H]([C@@H](C)CC)C(=O)N2 [Example 14] (cyclo(CIPD[PEG4]GICSRSLPPI); disulfide 1-8) | 735 nM
2 | CC[C@H](C)[C@@H]1NC(=O)CNC(=O)CNC(=O)[C@H](CC(=O)O)NC(=O)[C@@H]2CCCN2C(=O)[C@H]([C@@H](C)CC)NC(=O)[C@@H]2CSSC[C@H](NC1=O)C(=O)N[C@@H](CO)C(=O)N[C@@H](CCCNC(=N)N)C(=O)N[C@@H](CO)C(=O)N[C@@H](CC(C)C)C(=O)N1CCC[C@H]1C(=O)N1CCC[C@H]1C(=O)N[C@@H]([C@@H](C)CC)C(=O)N2 [Example 15, [(6S,9S,12S,15S,18R,21S,30S,32aS,38S,41R,44S,46aS,51aS)-21,38,44-tri[(2S)-butan-2-yl]-12-(3-carbamimidamidopropyl)-9,15-bis(hydroxymethyl)-6-(2-methylpropyl)-5,8,11,14,17,20,23,26,29,32,37,40,43,46,51-pentadecaoxopentacontahydro-1H-18,41-(methanodithiomethano)tripyrrolo[1,2-a:1′,2′-d:1″,2″-p][1,4,7,10,13,16, 19,22,25,28,31,34,37,40,43]pentadecaazacyclopentatetracontin-30-yl]acetic acid] (cyclo(CIPDGGICSRSLPPI); disulfide 1-8) | 571 nM
3 | CC[C@H](C)[C@@H]1NC(=O)CNC(=O)CCCCCNC(=O)[C@@H](CC(=O)O)NC(=O)[C@@H]2CCCN2C(=O)[C@H]([C@@H](C)CC)NC(=O)[C@@H]2CSSC[C@H](NC1=O)C(=O)N[C@@H](CO)C(=O)N[C@@H](CCCNC(=N)N)C(=O)N[C@@H](CO)C(=O)N[C@@H](CC(C)C)C(=O)N1CCC[C@H]1C(=O)N1CCC[C@H]1C(=O)N[C@@H]([C@@H](C)CC)C(=O)N2 [Example 16, [(6S,9S,12S,15S,18R,21S,34R,36aS,42S,45R,48S,50aS,55aS)-21,42,48-tri[(2S)-butan-2-yl]-12-(3-carbamimidamidopropyl)-9,15-bis(hydroxymethyl)-6-(2-methylpropyl)-5,8,11,14,17,20,23,26,33,36,41,44,47,50,55-pentadecaoxotetrapentacontahydro-1H-18,45-(methanodithiomethano)tripyrrolo[2,1-f:2′,1′-r:2″,1″-u][1,4,7,10,13,16,19,22,25,28,31,34,37,40,43]pentadecaazacyclononatetracontin-34-yl]acetic acid] (cyclo([Ahx]GICSRSLPPICIP[dD]); disulfide 4-12) | 384 nM
4 | CC[C@H](C)[C@@H]1NC(=O)CNC(=O)CNC(=O)[C@H](C)NC(=O)[C@@H](CC(=O)O)NC(=O)[C@@H]2CCCN2C(=O)[C@H]([C@@H](C)CC)NC(=O)[C@@H]2CSSC[C@H](NC1=O)C(=O)N[C@@H](CO)C(=O)N[C@@H](CCCNC(=N)N)C(=O)N[C@@H](CO)C(=O)N[C@@H](CC(C)C)C(=O)N1CCC[C@H]1C(=O)N1CCC[C@H]1C(=O)N[C@@H]([C@@H](C)CC)C(=O)N2 [Example 17] (cyclo(AGGICSRSLPPICIP[dD]); disulfide 5-13) | 304 nM
5 | CC[C@H](C)[C@@H]1NC(=O)CNC(=O)CNC(=O)[C@H](C)NC(=O)[C@H](CC(=O)O)NC(=O)[C@@H]2CCCN2C(=O)[C@H]([C@@H](C)CC)NC(=O)[C@@H]2CSSC[C@H](NC1=O)C(=O)N[C@@H](CO)C(=O)N[C@@H](CCCNC(=N)N)C(=O)N[C@@H](CO)C(=O)N[C@@H](CC(C)C)C(=O)N1CCC[C@H]1C(=O)N1CCC[C@H]1C(=O)N[C@@H]([C@@H](C)CC)C(=O)N2 [Example 18] (cyclo(AGGICSRSLPPICIPD); disulfide 5-13) | 207 nM
6 | CC[C@H](C)[C@@H]1NC(=O)CNC(=O)CNC(=O)[C@@H](C)NC(=O)[C@H](CC(=O)O)NC(=O)[C@@H]2CCCN2C(=O)[C@H]([C@@H](C)CC)NC(=O)[C@@H]2CSSC[C@H](NC1=O)C(=O)N[C@@H](CO)C(=O)N[C@@H](CCCNC(=N)N)C(=O)N[C@@H](CO)C(=O)N[C@@H](CC(C)C)C(=O)N1CCC[C@H]1C(=O)N1CCC[C@H]1C(=O)N[C@@H]([C@@H](C)CC)C(=O)N2 [Example 19] (cyclo(CIPD[dA]GGICSRSLPPI); disulfide 1-9) | 441 nM
7 | CC[C@H](C)[C@@H]1NC(=O)CNC(=O)CNC(=O)[C@@H](N)CNC(=O)[C@H](CC(=O)O)NC(=O)[C@@H]2CCCN2C(=O)[C@H]([C@@H](C)CC)NC(=O)[C@@H]2CSSC[C@H](NC1=O)C(=O)N[C@@H](CO)C(=O)N[C@@H](CCCNC(=N)N)C(=O)N[C@@H](CO)C(=O)N[C@@H](CC(C)C)C(=O)N1CCC[C@H]1C(=O)N1CCC[C@H]1C(=O)N[C@@H]([C@@H](C)CC)C(=O)N2 [Example 20] (H-[Dap]GGICSRSLPPICIPD; lactam 1-C; disulfide 5-13) | 850 nM
8 | CC[C@H](C)[C@@H]1NC(=O)CNC(=O)[C@H](CO)NC(=O)CNC(=O)[C@H](CO)NC(=O)[C@H](CC(=O)O)NC(=O)[C@@H]2CCCN2C(=O)[C@H]([C@@H](C)CC)NC(=O)[C@@H]2CSSC[C@H](NC1=O)C(=O)N[C@@H](CO)C(=O)N[C@@H](CCCNC(=N)N)C(=O)N[C@@H](CO)C(=O)N[C@@H](CC(C)C)C(=O)N1CCC[C@H]1C(=O)N1CCC[C@H]1C(=O)N[C@@H]([C@@H](C)CC)C(=O)N2 [Example 21] (cyclo(CIPDSGSGICSRSLPPI); disulfide 1-10) | 326 nM
9 | CC[C@H](C)[C@@H]1NC(=O)CNC(=O)[C@@H](N)CCCCNC(=O)[C@H](CC(=O)O)NC(=O)[C@@H]2CCCN2C(=O)[C@H]([C@@H](C)CC)NC(=O)[C@@H]2CSSC[C@H](NC1=O)C(=O)N[C@@H](CO)C(=O)N[C@@H](CCCNC(=N)N)C(=O)N[C@@H](CO)C(=O)N[C@@H](CC(C)C)C(=O)N1CCC[C@H]1C(=O)N1CCC[C@H]1C(=O)N[C@@H]([C@@H](C)CC)C(=O)N2 [Example 22] (H-KGICSRSLPPICIPD; lactam 1-C; disulfide 4-12) | 308 nM
10 | CC[C@H](C)[C@@H]1NC(=O)CNC(=O)CCOCCOCCNC(=O)[C@H](CC(=O)O)NC(=O)[C@@H]2CCCN2C(=O)[C@H]([C@@H](C)CC)NC(=O)[C@@H]2CSSC[C@H](NC1=O)C(=O)N[C@@H](CO)C(=O)N[C@@H](CCCNC(=N)N)C(=O)N[C@@H](CO)C(=O)N[C@@H](CC(C)C)C(=O)N1CCC[C@H]1C(=O)N1CCC[C@H]1C(=O)N[C@@H]([C@@H](C)CC)C(=O)N2 [Example 24] (cyclo(CIPD[PEG2]GICSRSLPPI); disulfide 1-8) | 759 nM
11 | CC[C@H](C)[C@@H]1NC(=O)[C@H](C)NC(=O)CCCCCNC(=O)[C@@H]2CCCN2C(=O)[C@H]([C@@H](C)CC)NC(=O)[C@@H]2CSSC[C@H](NC1=O)C(=O)N[C@@H](CO)C(=O)N[C@@H](CCCNC(=N)N)C(=O)N[C@@H](CO)C(=O)N[C@@H](CC(C)C)C(=O)N1CCC[C@H]1C(=O)N1[C@@H](C[C@@H]3CCCC[C@@H]31)C(=O)N[C@@H]([C@@H](C)CC)C(=O)N2 [Example 25] (cyclo(AICSRSLP[Oic]ICIP[Ahx]); disulfide 3-11) | 191 nM
12 | CC[C@H](C)[C@@H]1NC(=O)[C@H](C)NC(=O)CNC(=O)[C@H](C)NC(=O)[C@H](CC(=O)O)NC(=O)[C@@H]2CCCN2C(=O)[C@H]([C@@H](C)CC)NC(=O)[C@H]2NC(=O)[C@H]([C@@H](C)CC)NC(=O)[C@@H]3CCCN3C(=O)[C@@H]3CCCN3C(=O)[C@H](CC(C)(C)C)NC(=O)[C@H](CO)NC(=O)[C@H](CCCNC(=N)N)NC(=O)[C@H](CO)NC(=O)[C@H](CSSC2(C)C)NC1=O [Example 26] (cyclo(AGAICSRS[tBuAla]PPI[Pen]IPD); disulfide 5-13) | 163 nM
13 | CC[C@H](C)[C@@H]1NC(=O)[C@H](C)NC(=O)CCCCCNC(=O)[C@H](CC(=O)O)NC(=O)[C@@H]2CCCN2C(=O)[C@H]([C@@H](C)CC)NC(=O)[C@H]2NC(=O)[C@H]([C@@H](C)CC)NC(=O)[C@@H]3CCCN3C(=O)[C@@H]3CCCN3C(=O)[C@H](CC(C)(C)C)NC(=O)[C@H](CO)NC(=O)[C@H](CCCNC(=N)N)NC(=O)[C@H](CO)NC(=O)[C@H](CSSC2(C)C)NC1=O [Example 27] (cyclo(AICSRS[tBuAla]PPI[Pen]IPD[Ahx]); disulfide 3-11) | 127 nM
14 | CC[C@H](C)[C@@H]1NC(=O)CNC(=O)CCCCCNC(=O)[C@H](CC(=O)O)NC(=O)[C@@H]2CCCN2C(=O)[C@H]([C@@H](C)CC)NC(=O)[C@H]2NC(=O)[C@H]([C@@H](C)CC)NC(=O)[C@@H]3CCCN3C(=O)[C@@H]3CCCN3C(=O)[C@H](CC(C)(C)C)NC(=O)[C@H](CO)NC(=O)[C@H](CCCNC(=N)N)NC(=O)[C@H](CO)NC(=O)[C@H](CSSC2(C)C)NC1=O [Example 28] (cyclo([Ahx]GICSRS[tBuAla]PPI[Pen]IPD); disulfide 4-12) | 91.9 nM
15 | CC[C@H](C)[C@@H]1NC(=O)CNC(=O)CCCCCNC(=O)[C@H](CC(=O)O)NC(=O)[C@@H]2CCCN2C(=O)[C@H]([C@@H](C)CC)NC(=O)[C@@H]2CSSC[C@H](NC1=O)C(=O)N[C@@H](CO)C(=O)N[C@@H](CCCNC(=N)N)C(=O)N[C@@H](CO)C(=O)N[C@@H](CC(C)(C)C)C(=O)N1CCC[C@H]1C(=O)N1CCC[C@H]1C(=O)N[C@@H]([C@@H](C)CC)C(=O)N2C [Example 30] (cyclo([Ahx]GICSRS[tBuAla]PPI[NMeC]IPD); disulfide 4-12) | 111 nM
16 | CC[C@H](C)[C@@H]1NC(=O)[C@H](C)NC(=O)CNC(=O)[C@H](C)NC(=O)[C@H](CC(=O)O)NC(=O)[C@@H]2CCCN2C(=O)[C@H]([C@@H](C)CC)NC(=O)[C@@H]2CSSC[C@H](NC1=O)C(=O)N[C@@H](CO)C(=O)N[C@@H](CCCNC(=N)N)C(=O)N[C@@H](CO)C(=O)N[C@@H](CC(C)(C)C)C(=O)N1CCC[C@H]1C(=O)N1CCC[C@H]1C(=O)N[C@@H]([C@@H](C)CC)C(=O)N2C [Example 31] (cyclo(AGAICSRS[tBuAla]PPI[NMeC]IPD); disulfide 5-13) | 110 nM
